Measurements taken from patent US20250066451A1 (SWEDISH ORPHAN BIOVITRUM AB PUBL, published 2025).
Residue numbers refer to the chain shown, from its start.

T1: human IL-1R-I (human, UniProt P14778 18-332, limits assumed)
T1 construct: bought recombinant protein; also called hIL-1R-I; hIL-1RI
T1 sequence (looked up): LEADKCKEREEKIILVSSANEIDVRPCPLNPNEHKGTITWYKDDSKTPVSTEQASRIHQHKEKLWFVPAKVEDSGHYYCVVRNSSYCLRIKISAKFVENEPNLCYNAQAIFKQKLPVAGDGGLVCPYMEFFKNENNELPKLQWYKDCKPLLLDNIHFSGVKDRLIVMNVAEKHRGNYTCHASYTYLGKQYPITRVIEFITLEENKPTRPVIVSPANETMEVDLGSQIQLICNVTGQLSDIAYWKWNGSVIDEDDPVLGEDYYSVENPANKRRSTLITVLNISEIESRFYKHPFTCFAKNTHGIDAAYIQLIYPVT

B1: Z18879 (Z-ABD) (designed binder)
chain: AQHDEALEVDAKYAKEVEYIQMEIFRLPNLTRRQYTAFIRKLLDDPSQSSELLSEAKKLNDSQAPKVDYVLAEAKVLANRELDKYGVSDYYKNLINNAKTVEGVKALIDEILAALPYVPG
B2: Z18889 (Z-ABD) (designed binder)
chain: B1 chain with Y19E, I20V
B3: Z18971 (Z-ABD) (designed binder)
chain: B1 chain with V17I, Y19S, I20V, M22L, R26G
B4: Z18896 (Z-ABD) (designed binder)
chain: B1 chain with V17T, Y19A, R26A
B5: Z18894 (Z-ABD) (designed binder)
chain: B1 chain with Y19E, R26D
B6: Z18919 (Z-ABD) (designed binder)
chain: B1 chain with Y19E, R26S, R33K
B7: Z18966 (Z-ABD) (designed binder)
chain: B1 chain with V17T, Y19E, I20V, R33K
B8: Z18927 (Z-ABD) (designed binder)
chain: B1 chain with V17I, Y19E, R26A, R33K
B9: Z18922 (Z-ABD) (designed binder)
chain: B1 chain with V17I, Y19E, M22L, R33K
B10: Z18904 (Z-ABD) (designed binder)
chain: B1 chain with Y19E, M22L, R26A, R33K
B11: Z18920 (Z-ABD) (designed binder)
chain: B1 chain with V17T, Y19E
B12: Z18912 (Z-ABD) (designed binder)
chain: B1 chain with V17T, Y19E, R26H, R33K
B13: Z18925 (Z-ABD) (designed binder)
chain: B1 chain with V17T, Y19D, M22Q, R26Q
B14: Z18910 (Z-ABD) (designed binder)
chain: B1 chain with V17I, Y19A, R33K
B15: Z18890 (Z-ABD) (designed binder)
chain: B1 chain with V17L, Y19K, I20V, R26G
B16: Z18909 (Z-ABD) (designed binder)
chain: B1 chain with V17I, Y19E, R26F
B17: Z18887 (Z-ABD) (designed binder)
chain: B1 chain with Y19V
B18: Z18959 (Z-ABD) (designed binder)
chain: B1 chain with V17I, Y19E, I20V, R26G
B19: Z18958 (Z-ABD) (designed binder)
chain: B1 chain with V17T, Y19E, R26S
B20: Z18982 (Z-ABD) (designed binder)
chain: B1 chain with V17I, Y19E, I20V, M22L, R26S, R33K
B21: Z19012 (Z-ABD) (designed binder)
chain: B1 chain with Y19E, I20V, M22L, R26A, R33K
B22: Z18886 (Z-ABD) (designed binder)
chain: B1 chain with V17I, Y19A, R26G, R33K
B23: Z18885 (Z-ABD) (designed binder)
chain: B1 chain with Y19E, R26Y, L43F
B24: Z18911 (Z-ABD) (designed binder)
chain: B1 chain with Y19A, R26A, R33K
B25: Z18888 (Z-ABD) (designed binder)
chain: B1 chain with Y19A, R26H, R33K
B26: Z18917 (Z-ABD) (designed binder)
chain: B1 chain with V17I, Y19E, M22F, F25Y, R26D, R33K, L43F
B27: Z18884 (Z-ABD) (designed binder)
chain: B1 chain with Y19I, R26G
B28: Z18916 (Z-ABD) (designed binder)
chain: B1 chain with V17I, Y19E, M22L, R26H, R33K
B29: Z18923 (Z-ABD) (designed binder)
chain: B1 chain with V17I, Y19E, M22Q, R26H
B30: Z18908 (Z-ABD) (designed binder)
chain: B1 chain with V17I, Y19E, M22L, R26A, R33K
B31: Z18989 (Z-ABD) (designed binder)
chain: B1 chain with V17I, Y19D, I20V, M22L, R26A, R33K
B32: Z18893 (Z-ABD) (designed binder)
chain: B1 chain with V17I, Y19E, R26G, R33K
B33: Z18898 (Z-ABD) (designed binder)
chain: B1 chain with V17L, Y19A, R26Y, T36V
B34: Z18956 (Z-ABD) (designed binder)
chain: B1 chain with V17I, Y19A, I20V, M22I, R33K
B35: Z19031 (Z-ABD) (designed binder)
chain: B1 chain with Y19T, M22L, R26A
B36: Z18968 (Z-ABD) (designed binder)
chain: B1 chain with V17L, Y19E, I20V, M22L, R40I
B37: Z18882 (Z-ABD) (designed binder)
chain: B1 chain with Y19E, I20V, R26D
B38: Z18952 (Z-ABD) (designed binder)
chain: B1 chain with Y19Q, R26Y
B39: Z18938 (Z-ABD) (designed binder)
chain: B1 chain with V17I, Y19Q, R26A, R33K
B40: Z18881 (Z-ABD) (designed binder)
chain: B1 chain with V17I, Y19E, R26G, L43F
B41: Z18941 (Z-ABD) (designed binder)
chain: B1 chain with V17L, Y19A, I20V, R26Y
B42: Z18895 (Z-ABD) (designed binder)
chain: B1 chain with V17I, Y19A, R26Y
B43: Z18942 (Z-ABD) (designed binder)
chain: B1 chain with Y19T, M22H, R33K, L43F
B44: Z18948 (Z-ABD) (designed binder)
chain: B1 chain with V17I, Y19A, R26Y, R33K
B45: Z18967 (Z-ABD) (designed binder)
chain: B1 chain with V17I, Y19V, I20V, R26H, R33K

Target: T1, human IL-1R-I
Assay: SPR screening; Z-ABD captured on anti-ABD, 100 nM hIL-1R-I injected

Row | Kd [nM] | Binder
1 | 6.2 | B1
2 | 3.4 | B2
3 | 5.5 | B3
4 | 3.5 | B4
5 | 2.5 | B5
6 | 2.8 | B6
7 | 2.9 | B7
8 | 3.4 | B8
9 | 4.9 | B9
10 | 3.4 | B10
11 | 3.2 | B11
12 | 3.6 | B12
13 | 11 | B13
14 | 3.1 | B14
15 | 3.1 | B15
16 | 2.7 | B16
17 | 2.9 | B17
18 | 2.9 | B18
19 | 2.8 | B19
20 | 5.2 | B20
21 | 4.5 | B21
22 | 3.9 | B22
23 | 3.9 | B23

Row | Kd [nM] | Binder
24 | 2.8 | B24
25 | 2.6 | B25
26 | 7.1 | B26
27 | 2.7 | B27
28 | 4.1 | B28
29 | 9 | B29
30 | 3.6 | B30
31 | 4.5 | B31
32 | 2.1 | B32
33 | 2.5 | B33
34 | 14 | B34
35 | 3.1 | B35
36 | 2.4 | B36
37 | 2.6 | B37
38 | 3 | B38
39 | 4.5 | B39
40 | 3.2 | B40
41 | 3.3 | B41
42 | 2.6 | B42
43 | 15 | B43
44 | 4.3 | B44
45 | 3.2 | B45
